Among all 310,000 compounds or so, about 2,200 (0.71%) showed an effect of 50% or more. The effect is printed as a negative number. The list shows a part of the results.
target: human ether-à-go-go-related gene (hERG) potassium channel (human, UniProt Q12809); assay: primary screen, population patch clamp on CHO cells stably expressing hERG
Sequence (Q12809 whole entry, looked up): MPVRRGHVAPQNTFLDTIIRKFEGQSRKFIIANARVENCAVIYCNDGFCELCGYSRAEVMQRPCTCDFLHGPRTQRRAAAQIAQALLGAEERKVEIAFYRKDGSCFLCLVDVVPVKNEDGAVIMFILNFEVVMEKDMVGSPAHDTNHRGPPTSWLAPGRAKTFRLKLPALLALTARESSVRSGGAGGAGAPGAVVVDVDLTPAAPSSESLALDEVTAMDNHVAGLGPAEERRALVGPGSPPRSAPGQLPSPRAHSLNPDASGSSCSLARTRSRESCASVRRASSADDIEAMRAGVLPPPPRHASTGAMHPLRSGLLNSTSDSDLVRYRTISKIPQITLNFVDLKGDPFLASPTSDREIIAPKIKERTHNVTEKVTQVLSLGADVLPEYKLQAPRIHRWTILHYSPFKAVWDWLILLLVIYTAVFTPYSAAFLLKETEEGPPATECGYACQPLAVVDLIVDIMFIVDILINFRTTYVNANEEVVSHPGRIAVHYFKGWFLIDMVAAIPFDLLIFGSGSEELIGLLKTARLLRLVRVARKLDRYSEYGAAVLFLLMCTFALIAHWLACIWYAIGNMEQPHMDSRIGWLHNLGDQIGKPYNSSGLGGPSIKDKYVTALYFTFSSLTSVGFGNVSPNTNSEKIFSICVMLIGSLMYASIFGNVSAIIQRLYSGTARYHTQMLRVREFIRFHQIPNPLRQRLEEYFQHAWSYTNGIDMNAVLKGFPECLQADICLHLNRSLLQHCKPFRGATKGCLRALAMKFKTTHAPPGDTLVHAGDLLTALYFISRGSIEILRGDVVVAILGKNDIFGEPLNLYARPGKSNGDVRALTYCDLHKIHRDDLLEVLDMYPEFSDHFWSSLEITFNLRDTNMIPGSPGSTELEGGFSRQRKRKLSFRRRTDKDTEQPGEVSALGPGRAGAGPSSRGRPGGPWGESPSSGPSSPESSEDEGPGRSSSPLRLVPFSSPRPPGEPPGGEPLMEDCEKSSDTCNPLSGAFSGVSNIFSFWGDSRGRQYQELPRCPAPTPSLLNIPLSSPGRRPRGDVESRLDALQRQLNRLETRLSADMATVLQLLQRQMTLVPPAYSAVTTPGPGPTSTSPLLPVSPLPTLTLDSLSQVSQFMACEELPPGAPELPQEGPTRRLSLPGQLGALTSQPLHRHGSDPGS

Going from `Nc1ccccc1Oc1ccc2ccccc2c1` to `COc1ccccc1NC(=O)c1nn(-c2ccc(Cl)cc2)ccc1=O`, the “hERG current change (%, negative = inhibition) at 1uM” value falls from 10.8% to 0.496%.

Going from `Cc1cc(C)n2nc(C(=O)OCC(=O)NNC(=O)c3ccccc3)nc2n1` to `CCOC(=O)c1cc(CC)sc1NC(=O)c1cccc(N2C(=O)CCC2=O)c1`, the “hERG current change (%, negative = inhibition) at 1uM” value falls from 3.95% to -6.32%.

Going from `COc1ccc(S(=O)(=O)c2cnc3ccc(OC)cc3c2N2CCC3(CC2)OCCO3)cc1` to `COc1cccc(C(=O)NC2(C(F)(F)F)N=C3SCCN3C2=O)c1` (centres unmarked), the “hERG current change (%, negative = inhibition) at 1uM” value falls from 6.72% to 0.818%.

First: C=CCn1c(CSCc2ccc(Cl)cc2Cl)nnc1SCC(=O)Nc1ccc(C(=O)O)cc1
Second: CN(C)c1cc[n+](CC(=O)Nc2ccc(Cl)cc2)cc1.[Cl-]
The “hERG current change (%, negative = inhibition) at 1uM” value of the first is lower: 13.3% for the first, 15.9% for the second.

Compared with `Nc1cc(C(F)(F)F)cc2c1SCC(=O)N2`, `FC(F)(F)c1cccc(-c2nn[nH]n2)c1` is lower in “hERG current change (%, negative = inhibition) at 1uM” value: 22.2% for the first, 6.08% for the second.

Going from `O=C(OCC(=O)N(C1CCCCC1)C1CCCCC1)c1ccc(O)cc1` to `CC1CCCC(NC(=O)COC(=O)Cc2ccccc2)C1C` (centres unmarked), the “hERG current change (%, negative = inhibition) at 1uM” value falls from 11.7% to -6.13%.

Compared with `COc1ccc(/C=N/NC(=O)c2cc[n+]([O-])cc2)cc1O`, `COc1cccc(OC)c1C(=O)NC(=O)Nc1c(F)c(F)c(F)c(F)c1F` is higher in “hERG current change (%, negative = inhibition) at 1uM” value: 9.9% for the first, 10.4% for the second.

First: Cc1ccc(-c2nnn(CC(=O)NCC3COCCO3)n2)o1 (centres unmarked)
Second: CC(C)CC(c1nnnn1Cc1ccc2c(c1)OCO2)N1CCC(C(N)=O)CC1 (centres unmarked)
The “hERG current change (%, negative = inhibition) at 1uM” value of the first is lower: 14.2% for the first, 14.5% for the second.

Going from `CCN1CCN(c2nc(Nc3cccc(C)c3)nc(N)c2[N+](=O)[O-])CC1` to `Cc1cccc(C(=O)Nc2sc3c(c2C#N)CCCCC3)c1`, the “hERG current change (%, negative = inhibition) at 1uM” value rises from -36.9% to 10.1%.

Going from `COC12NC(=O)N(C)C1(OC)C(=O)N(C)C(=O)N2C` (centres unmarked) to `CCCn1c(N)c(N(CCOC)C(=O)c2cccc(C(F)(F)F)c2)c(=O)[nH]c1=O`, the “hERG current change (%, negative = inhibition) at 1uM” value falls from 14.5% to 13.8%.

First: O=C(O)CN1C(=O)Nc2ccc(Br)cc2C1c1ccccc1 (centres unmarked)
Second: O=S(=O)(Nc1ccncc1)c1ccccc1
The “hERG current change (%, negative = inhibition) at 1uM” value of the first is lower: 3% for the first, 17.4% for the second.

Compared with `O=C(O)CC1(CC(=O)Nc2ccc3c(c2)C(=O)OC3)CCCCC1`, `CCCCC(=O)Nc1nnc(S(=O)(=O)N(C)Cc2ccco2)s1` is higher in “hERG current change (%, negative = inhibition) at 1uM” value: 10.7% for the first, 12.6% for the second.

Going from `CC(C(=O)Nc1nc2ccccc2[nH]1)N1C(=O)C2CC=CCC2C1=O` (centres unmarked) to `Cl.NCCSC1CC(=O)N(c2ccc(F)cc2)C1=O` (centres unmarked), the “hERG current change (%, negative = inhibition) at 1uM” value rises from 12.1% to 18.5%.
